Test results: patent US20250269026A1 (CHENGDU KELUN PRECISION BIOTECHNOLOGY, published 2025)

What was measured:
[1] = molecular target: T1, MSLN on MSLN-positive cells (293T/MSLN+, OVCAR-3, NCI-H596) (human, UniProt Q13421 296-598); assay: flow cytometry, serially diluted scFv-Fc on OVCAR-3 cells
T1 construct: whole, on cells; The construct used in 293T/MSLN+ is not described; also called mesothelin; human MSLN
Excerpt: (§1) In order to identify the binding affinity of MSLN scFv-Fc protein, the MSLN scFv-Fc protein was serially diluted and used to stain the three selected cell lines expressing MSLN, and the cell binding ability was detected by flow cytometry.

[2] = molecular target: T1, MSLN on MSLN-positive cells …; assay: flow cytometry, serially diluted scFv-Fc on NCI-H596 cells
Excerpt: as §1

[3] = molecular target: T1, MSLN on MSLN-positive cells …; assay: flow cytometry, serially diluted scFv-Fc on 293T/MSLN+ cells
Excerpt: as §1

T1 sequence (Q13421 other isoform, or with tags, fused parts or gaps limits assumed): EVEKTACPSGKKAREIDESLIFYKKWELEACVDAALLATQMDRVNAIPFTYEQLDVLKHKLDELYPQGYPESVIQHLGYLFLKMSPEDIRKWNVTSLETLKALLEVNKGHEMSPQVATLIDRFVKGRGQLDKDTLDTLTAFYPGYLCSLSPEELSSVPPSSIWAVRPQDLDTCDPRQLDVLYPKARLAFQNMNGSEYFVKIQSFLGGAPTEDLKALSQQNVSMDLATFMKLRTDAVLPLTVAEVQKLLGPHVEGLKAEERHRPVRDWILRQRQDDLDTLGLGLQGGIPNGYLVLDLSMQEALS

B1: G16 scFv-Fc (Fc fusion)
chain: QVQLVQSGAEVTKPGASVKVSCRASGYPFSNFFMNWVRQAPGQGLEWMGIINPIGGSTTYAQKFQGRVTMTRDTSTDTVYMELSSLRSDDTAVYYCARSSSHLGAFDIWGQGTMVTVSSASGGGGSGGRASGGGGSDIQLTQSPSSVSASVGDRVTITCRASQSISTWVAWYQHKPGVAPKLLIYASPTLQSGVPSRFSGSGSGTDFTLTISSLQSEDFATYYCQQAHSFPITFGQGTRLEIKRP[sequence of human IgG1 Fc with changes omitted]
notes: no linker between the two is stated; also called anti-MSLN antibody G16; MSLN scFv-Fc protein
EC50 [1]: 4.92 nM
EC50 [2]: 2.25 nM
EC50 [3]: 1.58 nM
